The values that follow come from US20240262902A1 (AstraZeneca / MedImmune, published 2024).

In this test the target is T1, tumor necrosis factor alpha (TNFα), recombinant human (R&D Systems) (human, UniProt P01375 fragment).
T1 construct: Bought protein (R&D Systems)
Description: single antigen ELISA, TNFα coated, detection with anti-human IgG Fc-HRP. How it is done:
Nunc Maxisorp wells were coated at 4° C. overnight with 50 μl of TNFα (R&D Systems) diluted to 5 μg ml⁻¹ in PBS (pH 7.4). The following day the coating solution was removed and the wells blocked with 150 μl of blocking buffer [3% skimmed milk-PBS] for 1 h at room temperature. The wells were rinsed three times in PBS, prior to the addition of 50 μl of a dilution series of TNFR2-Fc_VH #4 made in blocking buffer. After 1 h at room temperature, the wells were washed three times in PBS-Tween 20 (0.1% v/v; PBS-T). Fifty microliters of biotinylated NGF was then added to the wells and incubated for a further hour at room temperature, prior to washing as above and addition of 50 μl of streptavidin-HRP (1:100). […] The reaction was stopped by the addition of 1M H₂SO₄ and the absorbance at 450 nm was measured using a microtiter plate reader. The resulting data were analyzed using Prism 5 software (GraphPad, San Diego, CA). For the single antigen binding ELISA, the wells were coated with either TNFα or NGF-biotin as above and antibody binding detected with anti-Human IgG Fc specific HRP conjugated antibody (1:5000), and color developed as above.
TNFR2-Fc_VH #4 was designed to bind to both TNFα and NGF antigens. […] Specific binding was detected by using a horseradish peroxidase (HRP)-conjugated anti-IgG Fc specific antibody. […] Specific binding was then detected using an HRP-conjugated streptavidin. […]
Background: ELISA stands for enzyme-linked immunosorbent assay.

T1 sequence (P01375 77-233 limits assumed): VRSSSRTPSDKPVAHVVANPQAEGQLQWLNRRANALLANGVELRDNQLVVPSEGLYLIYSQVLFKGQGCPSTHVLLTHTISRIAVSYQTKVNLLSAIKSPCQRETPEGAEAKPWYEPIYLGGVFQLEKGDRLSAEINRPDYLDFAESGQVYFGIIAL

B1: TNFR2-Fc_VH #4 (Fc fusion)
chain: LPAQVAFTPYAPEPGSTCRLREYYDQTAQMCCSKCSPGQHAKVFCTKTSDTVCDSCEDSTYTQLWNWVPECLSCGSRCSSDQVETQACTREQNRICTCRPGWYCALSKQEGCRLCAPLRKCRPGFGVARPGTETSDVVCKPCAPGTFSNTTSSTDICRPHQICNVVAIPGNASMDAVCTSTSPTRSMAPGAVHLPQPVSTRSQHTQPTPEPSTAPSTSFLLPMGPSPPAEGSTGD[omitted - human IgG1 Fc]GGGGSGGGGSQVQLVQSGAEVKKPGSSVKVSCKASGGTFSTYGISWVRQAPGQGLEWMGGIIPIFDTGNSAQSFQGRVTITADESTSTAYMELSSLRSEDTAVYYCARSSRIYDLNPSLTAYYDMDVWGQGTMVTVSSGGGGSGGGGSGGGGSAQSVLTQPPSVSAAPGQKVTISCSGSSSNIGNNYVSWYQQLPGTAPKLLIYDNNKRPSGIPDRFSGSKSGTSATLGITGLQTGDEADYYCGTWDSSLSAWVFGGGTKLTVL
notes: Purified preparations also held N-terminally truncated species (175 residues missing); also called multispecific antibody
For the molecule B1, the binding result was “binds”.
